# Measured values as given in the supplement of paper PMC9446081.
# About 220 (0.56%) of roughly 39,000 compounds showed activity. The list shows a part of the results.
# System: Escherichia coli K-12 BW25113
# Experiment: relative growth (OD600 normalised to plate interquartile mean) (fraction); higher = less growth inhibition, active = 0.2 or less
# Settings: 50 µM; LB; incubation time: overnight (16-24 h)
# 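Note: static incubation at 37 °C against the wild-type strain, values averaged over two biological replicates.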
row,Compound,relative growth
1,C[C@H](CO)N1C[C@H](C)[C@@H](CN(C)S(=O)(=O)c2ccc(F)cc2)Oc2ccc(NC(=O)c3ccncc3)cc2CC1=O,inactive: 0.989
2,C[C@H](NC(=O)C[C@H]1C=C[C@H](NC(=O)CN2CCOCC2)[C@@H](CO)O1)c1ccccc1,inactive: 0.983
3,C[C@@H]1CN([C@@H](C)CO)C(=O)c2cc(NC(=O)c3ccncc3)ccc2O[C@@H]1CN(C)Cc1ccncc1,inactive: 0.993
4,COc1ccc(S(=O)(=O)N2C[C@H](O)COC[C@H]3O[C@H](CC(=O)N[C@@H]4CCN(Cc5ccccc5)C4)CC[C@@H]32)cc1,inactive: 1.01
5,COc1cccn(CC(=O)N2CCO[C@@H](CCN)C2)c1=O,inactive: 1.01
6,COc1ccc(NC(=O)Nc2ccc3c(c2)C(=O)N([C@H](C)CO)C[C@H](C)[C@@H](CN(C)Cc2ccc(C(F)(F)F)cc2)OCCCC[C@@H](C)O3)cc1,inactive: 1.06
7,C[C@H]1CN([C@@H](C)CO)C(=O)c2cc(NC(=O)C3CC3)ccc2O[C@@H]1CN(C)S(=O)(=O)c1cn(C)cn1,inactive: 0.941
8,CC(=O)NCCCC[C@@H]1NC(=O)[C@@H]2C[C@H](C(=O)NCCCCCCN)[C@H](c3cccc(OCCO)c3)N2C1=O,inactive: 1
9,C[C@@H](O)[C@H](N)C(=O)N[C@@H](CCCCN)C(=O)N1CCC[C@H]1C(=O)N[C@@H](CCCNC(=N)N)C(=O)O,inactive: 1.03
10,C[C@H](CO)N1C[C@H](C)[C@H](CN(C)S(=O)(=O)c2cn(C)cn2)Oc2cc(C#Cc3ccccc3)ccc2S1(=O)=O,inactive: 0.994
11,C[C@@H]1CCCCO[C@@H](CN(C)C(=O)c2ccccc2)[C@H](C)CN([C@@H](C)CO)C(=O)c2cc(NC(=O)CCC(F)(F)F)ccc2O1,inactive: 0.886
12,COc1ccc(S(=O)(=O)Nc2ccc3c(c2)C(=O)N([C@@H](C)CO)C[C@@H](C)[C@H](CN(C)C(=O)c2ccccc2)OCCCC[C@@H](C)O3)cc1,inactive: 1.02
13,C[C@H](O)CC1=C[C@H](O)[C@@H](C)OC1=O,inactive: 1.01
14,C[C@@H]1CN([C@@H](C)CO)S(=O)(=O)c2ccc(C#CCN(C)C)cc2O[C@H]1CN(C)Cc1ccc2c(c1)OCO2,inactive: 1.01
15,C=CCC[C@H](Cc1ccc(F)cc1)C(=O)OC[C@@H](NC(=O)[C@@H](CC=C)CC(=O)N(CCO)Cc1ccccc1)C(C)(C)C,inactive: 1.05
16,CC(C)NC(=O)N(C)C[C@H]1OCCCC[C@@H](C)Oc2ccc(NC(=O)Nc3ccc(F)cc3)cc2C(=O)N([C@H](C)CO)C[C@@H]1C,inactive: 0.98
17,COCC(=O)N(C)C[C@@H]1Oc2cc(C#C[C@H](C)O)ccc2S(=O)(=O)N([C@@H](C)CO)C[C@H]1C,inactive: 0.992
18,C[C@H]1CCCCO[C@@H](CN(C)Cc2ccc(C(F)(F)F)cc2)[C@@H](C)CN([C@@H](C)CO)C(=O)c2cc(NC(=O)NC3CCCCC3)ccc2O1,inactive: 1
19,C[C@@H]1CN([C@@H](C)CO)C(=O)CCCn2nncc2CO[C@H]1CN(C)S(=O)(=O)c1ccc2c(c1)OCCCO2,inactive: 0.985
20,NNC(=O)C1[C@H]2CCCC[C@@H]12 (stereo partly specified),inactive: 1.02
21,C[C@@H]1CN([C@H](C)CO)C(=O)c2cc(NC(=O)C3CCCCC3)ccc2O[C@@H](C)CCCCO[C@@H]1CN(C)C(=O)Nc1cccc2ccccc12,inactive: 0.991

row,Compound,relative growth
1,C[C@@H]1CN([C@@H](C)CO)C(=O)c2cccc(NS(=O)(=O)c3ccc(F)cc3)c2O[C@H]1CN(C)S(=O)(=O)c1ccc(F)cc1,inactive: 1
2,C[C@H](CO)N1C[C@H](C)[C@@H](CN(C)C(=O)Nc2ccc3c(c2)OCO3)Oc2ccc(NC(=O)C3CC3)cc2CC1=O,inactive: 1
3,COCC#Cc1ccc([C@@H]2[C@H](CO)N3C(=O)CN(C(=O)C4CCOCC4)C[C@@H]23)cc1,inactive: 0.959
4,CC(C)NC(=O)N(C)C[C@H]1OCCCC[C@H](C)Oc2ccc(NC(=O)Nc3cccc4ccccc34)cc2C(=O)N([C@H](C)CO)C[C@@H]1C,inactive: 1.05
5,Cn1cnc(S(=O)(=O)N[C@@H]2CC[C@H](CC(=O)Nc3ccccc3)O[C@@H]2CO)c1,inactive: 0.983
6,C[C@H](CO)N1C[C@H](C)[C@@H](CN(C)S(=O)(=O)c2cn(C)cn2)Oc2cc(Br)ccc2S1(=O)=O,inactive: 1.02
7,COc1ccc(S(=O)(=O)Nc2ccc3c(c2)C(=O)N([C@@H](C)CO)C[C@H](C)[C@H](CN(C)Cc2ccncc2)O3)cc1,inactive: 0.998
8,C[C@H]1CN([C@@H](C)CO)C(=O)c2cc(NC(=O)CCN3CCOCC3)ccc2O[C@@H]1CN(C)Cc1ccccc1,inactive: 1.01
9,CCS(=O)(=O)N1C[C@]2(C1)CN([C@H](CO)c1[nH]c3cc(ccc3c12)OC)S(=O)(=O)c1cn(cn1)C,inactive: 1.03
10,CCC=CCC=CCC=CCC=CCC=CCC=CCCC(=O)O,inactive: 1.06
11,C[C@@H]1CN([C@H](C)CO)C(=O)c2cc(NC(=O)NC3CCCCC3)ccc2O[C@@H](C)CCCCO[C@@H]1CN(C)Cc1ccccc1,inactive: 0.997
12,O=C(CN1CCOCC1)NCC[C@H]1CC[C@H](NC(=O)Nc2ccccc2)[C@H](CO)O1,inactive: 1
13,C[C@H]1CN([C@@H](C)CO)S(=O)(=O)c2ccc(Br)cc2O[C@@H]1CN(C)C(=O)Cc1ccccc1,inactive: 1.02
14,COc1ccc(NC(=O)Nc2ccc3c(c2)CC(=O)N([C@H](C)CO)C[C@@H](C)[C@H](CN(C)Cc2ccc(-c4ccccc4)cc2)O3)cc1,inactive: 1
15,C[C@H]1CN([C@@H](C)CO)S(=O)(=O)c2ccc(C#Cc3ccncc3)cc2O[C@H]1CN(C)C(=O)Nc1ccc2c(c1)OCO2,inactive: 1.02
16,C[C@@H]1CCCCO[C@@H](CN(C)C(=O)CCCN(C)C)[C@H](C)CN([C@H](C)CO)C(=O)c2cc(NC(=O)Nc3ccc(F)cc3)ccc2O1,inactive: 1.01
17,CC1=C2C(O)C(=O)OC3CC4C(C)(C)C(=O)C=CC4(C)C(CC1)C23C (stereo unspecified),inactive: 1.01
18,CC(=O)NCCCC[C@@H]1NC(=O)[C@H]2C[C@@H](C(=O)O)[C@@H](c3ccc(O)cc3)N2C1=O,inactive: 1.03
19,COc1cc(Nc2nc3ccccc3nc2NS(=O)(=O)c2ccc(NC(=O)c3ccc(C)c(OC)c3)cc2)cc(OC)c1,inactive: 1.05
20,Cc1ccc(-c2cnc3c(c2)C(=O)N([C@@H](C)CO)C[C@H](C)[C@H](CN(C)C(=O)Cc2cccnc2)O3)cc1,inactive: 0.981
21,CC(=O)n1cc([C@H]2C=C(C(=O)NCc3ccccc3)O[C@@H](OCc3ccc(CO)cc3)C2)c2ccccc21,inactive: 1.02

row,Compound,relative growth
1,C[C@@H]1CN([C@@H](C)CO)C(=O)Cc2cc(NC(=O)Nc3ccc(C(F)(F)F)cc3)ccc2O[C@H]1CN(C)Cc1ccc(-c2ccccc2)cc1,inactive: 1.02
2,C[C@@H]1CCCCO[C@H](CN(C)C(=O)Nc2ccc3c(c2)OCO3)[C@@H](C)CN([C@@H](C)CO)C(=O)c2cc(NC(=O)c3ccccc3)ccc2O1,inactive: 1.03
3,C[C@H]1CN([C@@H](C)CO)C(=O)c2cc(NC(=O)Nc3ccc(C(F)(F)F)cc3)ccc2O[C@H]1CN(C)C(=O)Nc1ccc(F)cc1,inactive: 1
4,C[C@@H]1CN([C@@H](C)CO)C(=O)Cc2cc(NC(=O)Cn3cnnn3)ccc2O[C@@H]1CN(C)Cc1ccc(C(=O)O)cc1,inactive: 0.969
5,CN(C)CC(=O)N[C@@H]1CC[C@H](CC(=O)O)O[C@@H]1CO,inactive: 0.991
6,COc1ccc(S(=O)(=O)N(C)C[C@H]2Oc3ccc(NS(=O)(=O)c4cn(C)cn4)cc3C(=O)N([C@H](C)CO)C[C@@H]2C)cc1,inactive: 0.963
7,CC(C)(C)OC(=O)N[C@H]1CCCCC/C=C\[C@@H]2C[C@@]2(C(=O)NS(=O)(=O)C2CC2)NC(=O)[C@@H]2C[C@@H](OC(=O)N3Cc4cccc(F)c4C3)CN2C1=O,inactive: 0.925
8,C[C@H]1CN([C@@H](C)CO)C(=O)c2cccc(NS(=O)(=O)c3ccc(Cl)cc3)c2O[C@@H]1CN(C)Cc1ccc(C(F)(F)F)cc1,inactive: 1.02
9,C=C(C)C1CCC2(C)CCC3(C)C(CCC4C5(C)CCC(OC(C)=O)C(C)(C)C5CCC43C)C12 (stereo unspecified),inactive: 0.829
10,NC(=O)Cn1cnc2sc3c(c2c1=O)CCC3,inactive: 1.02
11,C[C@H]1CN([C@@H](C)CO)C(=O)Cc2cc(NC(=O)Nc3ccc(F)cc3)ccc2O[C@@H]1CN(C)S(C)(=O)=O,inactive: 0.982
12,O=C(NCCN1CCOCC1)[C@@]1(CCS(=O)(=O)c2ccccc2)COC(c2ccc(OCCCO)cc2)=N1,inactive: 0.988
13,CN1C(=O)COc2cc(N)ccc21,inactive: 1.03
14,COCCCNC(=O)[C@@]1(Cc2ccccc2I)c2ccccc2C(=O)N(Cc2ccccc2OC)[C@H]1c1ccc(CO)cc1,inactive: 1.03
15,COc1ccc(Cl)cc1C(=O)NCCc1ccc(S(=O)(=O)NC(=O)NC2CCCCC2)cc1,inactive: 0.894
16,O=c1[nH]ccn(-c2ccccc2)c1=O,inactive: 1.02
17,C[C@H]1CCCCO[C@@H](CN(C)C(=O)Cc2ccccc2)[C@@H](C)CN([C@@H](C)CO)C(=O)c2cc(NS(=O)(=O)c3ccc(Cl)cc3)ccc2O1,inactive: 1.03
18,C[C@H]1CN([C@@H](C)CO)C(=O)c2c(c3ccccc3n2C)-c2ccccc2CO[C@@H]1CN(C)C(=O)Nc1cccc(Cl)c1Cl,inactive: 1.02
19,Clc1ccc(C(Cn2ccnc2)OCc2c(Cl)cccc2Cl)c(Cl)c1.O=[N+]([O-])O (stereo unspecified),inactive: 0.739
